Out of some 380,000 compounds screened, about 4,000 (1.1%) were called active. The inconclusive results got no clear call from the source; some entries with a clear call stand among them for comparison. Calls follow the shape of the dose curve; as a rule, active = well fitted activation curve with a large enough effect; inconclusive = small, poorly fitted or top-dose-only effect; inactive = no such curve, though single readings can be large or run the other way. Potencies of inconclusive entries are doubtful fits and often do not repeat.
experiment: qHTS Assay to Identify Small Molecule Activators of BRCA1 Expression; conditions: MCF7-BRCA1-FFLuc reporter, luminescence, 48 h; activation: at 46.1 µM (top of the series), scaled: vehicle 0%, 10 µM genistein 100% unless noted; also: nearly all actives have a fitted effect of over 80% in size
In short: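 MCF7-BRCA1-FFLuc cells, 2000/well in phenol-red-free MEM, attached 2 h then treated 48 h at 37 C. Luciferase luminescence read 15 min after reagent; normalized to genistein maximum activation (10microM) and DMSO, concentration-response fitted.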
Potency is read from the fitted curve at half-maximal effect; tags tell the direction and shape of the fitted curve.

| Structure (SMILES) | Potency | activation |
| --- | --- | --- |
| O=C(NC1=NCCS1)c1cccc(NC(=O)c2ccco2)c1 | inconclusive: 31.6 µM [activator, single point] |  |
| Cc1c(C)c2ccc(OCC(=O)c3ccccc3)cc2oc1=O | active: 6.31 µM |  |
| COc1cccc2sc3ccc(C#CC4(O)CCCCC4)cc3c(=O)c12 | inconclusive: 2.24 µM [activator, full curve, poor fit] |  |
| C(=N\Nc1ccccc1)/c1nc2ccccc2s1 | inconclusive: 6.31 µM [activator, full curve, poor fit] |  |
| Cc1ccc(NC(=O)c2ccc(CSc3nnnn3C)cc2)cc1 | inconclusive: 2.24 µM [activator, full curve, poor fit] |  |
| O=C(Nc1ccc(CN2CCOCC2)cc1)c1ccc(Cl)cc1 | active: 12.6 µM |  |
| Cc1ccsc1/C=N/NC(=O)c1ccccn1 | inconclusive: 2.51 µM [activator, partial curve, poor fit] |  |
| O=C(/C=C/Nc1ccc(S(=O)(=O)Nc2cnc3ccccc3n2)cc1)c1ccccc1 | inconclusive: 31.6 µM [activator, single point] |  |
| Cc1cccc(Nc2nc(-c3ccccn3)cs2)n1 |  | inconclusive: -0.861% [activator] |
| COc1ccc2nc(SCc3cccc(C)c3)nc(C)c2c1 | inconclusive: 2.82 µM [activator, full curve, poor fit] |  |
| O=C(Nc1cccc(Cl)c1)N1CCN(Cc2ccccc2)CC1 | inconclusive: 12.6 µM [activator, partial curve, poor fit] |  |
| CCOC(=O)NC(=O)/C(C#N)=C\Nc1ccc(Cl)cc1Cl | active: 12.6 µM |  |
| COc1ccc(Cc2nc(-c3cccc(C)c3)no2)cc1 | inconclusive: 11.2 µM [activator, partial curve, poor fit] |  |
| CC(/C=C/c1ccccc1)=N/NC(=O)C(O)c1ccccc1 (stereo unspecified) | inconclusive: 14.1 µM [activator, partial curve, poor fit] |  |
| O=C(/C=C\Nc1ccc2c(c1)OCO2)c1ccc2c(c1)OCO2 |  | inactive: 3.68% |
| Cc1cccc(Nc2nc3c(s2)CCCC3)c1 | active: 10 µM |  |
| CCC(C)c1ccc(NC(=S)N2CCN(c3ccccn3)CC2)cc1 (stereo unspecified) |  | inactive: -31.6% |
| CCc1ccc(-c2ccc(SCc3ccccn3)nn2)cc1 | active: 5.01 µM |  |
| CN(C)c1ccc(C(=S)NC2CCCCC2)cc1 | inconclusive: 7.08 µM [activator, partial curve, poor fit] |  |
| CCCC(C(=O)NCc1ccco1)N(Cc1ccco1)C(=O)CNS(=O)(=O)c1ccccc1 (stereo unspecified) |  | inactive: -7.94% |
| Cc1ccc(C(=O)N2CCN(c3ccc(NC(=S)NC(=O)c4cccs4)cc3)CC2)cc1 |  | inactive: -11.1% |
| COc1ccc(/C=C/C(=O)Nc2cc(C)on2)cc1 | active: 4.47 µM |  |
| O=C(O)c1ccccc1-c1ccccc1C(=O)NCc1cccc(C(F)(F)F)c1 | inconclusive: 31.6 µM [activator, single point] |  |

| Structure (SMILES) | Potency | activation |
| --- | --- | --- |
| c1cnc(Nc2nc(-c3ccc4ccccc4c3)cs2)nc1 | inconclusive: 0.794 µM [activator, full curve, poor fit] |  |
| COc1ccc(NC(=O)CSc2nc(=O)n(CCN3CCOCC3)c3c2CCCC3)c(OC)c1 |  | inactive: -11.9% |
| O=C(CSc1nnc(-c2ccco2)o1)N1CCCCC1 | inconclusive: 3.55 µM [activator, partial curve, poor fit] |  |
| CCOC(=O)c1ccccc1NC(=O)CSc1nc2ccccc2o1 | inconclusive: 11.2 µM [activator, partial curve, poor fit] |  |
| COc1cc(CC(=O)OCC(=O)N2C(C)CCCC2C)cc(OC)c1OC (stereo unspecified) |  | inactive: -1.48% |
| Cc1ccc(-c2csc(NC(=O)C3=COCCO3)n2)cc1 | inconclusive: 3.16 µM [activator, partial curve, poor fit] |  |
| Cc1ccc(F)c(C(=O)N2CCCC(C)(C(=O)NS(=O)(=O)C3CC3)C2)c1F (stereo unspecified) |  | inactive: 0% |
| COc1ccc2c(=O)c(-c3ccccc3)coc2c1 | inconclusive: 1.58 µM [activator, full curve, poor fit] |  |
| Cc1ccc(O)c(NC(=O)c2cc(-c3ccc(F)cc3)on2)c1 | inconclusive: 1.12 µM [activator, full curve, poor fit] |  |
| CCCCOc1ccc(CN(C)c2ncnc(N)n2)cc1 |  | inactive: -58.1% |
| Cc1ccc(C(=O)Nc2nc(=O)n(C(=O)c3ccccc3Cl)s2)cc1 | inconclusive: 11.2 µM [activator, partial curve, poor fit] |  |
| Cc1ccc(SCCC(=O)N2CCOCC2)cc1 | inconclusive: 12.6 µM [activator, partial curve, poor fit] |  |
| Cc1cccc(C(=O)NCC(=O)NC2CCC(C)CC2)c1 (stereo unspecified) | inconclusive: 25.1 µM [activator, single point] |  |
| O=C(NC1CC1)c1cccc2c1C(=O)c1ccc(N3CCC(N4CCCCC4)CC3)cc1S2(=O)=O |  | inactive: 8.28% |
| COc1ccc(-c2cn(Cc3ccc(C(N)=O)cc3)c(-c3ccncc3)n2)cc1 | active: 4.47 µM |  |
| CCC(=O)N1CCc2cc(S(=O)(=O)NCCN3CCC(C)CC3)ccc21 |  | inactive: 0% |
| CC(=O)Nc1cc(F)c2c(c1F)Cc1cc(F)ccc1-2 | inconclusive: 2.51 µM [activator, full curve, poor fit] |  |
| CC(=O)Nc1ccccc1C(=O)C(=O)Nc1ccc(C)c(F)c1 | inconclusive: 20 µM [activator, single point] |  |
| Cc1ccc2c(CN3CCN(c4ccc(Cl)c(Cl)c4)CC3)cc(=O)oc2c1 |  | inactive: 14.3% |
| O=[N+]([O-])c1ccc2oc(/C=C/c3ccc(O)cc3)nc2c1 | active: 10 µM |  |
| O=C1[C@H]2[C@@H](c3ccc(Cl)cc3)N3C(=O)N(c4cccc(F)c4)C(=O)[C@@]3(Cc3ccc(Cl)cc3)[C@H]2C(=O)N1C1CCCCC1 |  | inactive: -27.1% |
| CCOC(=O)C1(CCc2ccccc2)CCN(C(=O)CCn2cncn2)CC1 | inconclusive: 12.6 µM [activator, partial curve, poor fit] |  |
| COc1nc(C)ccc1-c1noc(-c2ccco2)n1 | inconclusive: 2.24 µM [activator, partial curve, poor fit] |  |
